Results reported in PubChem BioAssay (NCI).
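Test compounds were applied to cells in 96-well plates for 48 hours at 5 doses. GI50 marks 50% less growth.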 Not every entry of the source has a single result; some have several. The other results are left out here. The source may hold further records. For some assays here: The records of an entry repeat one measurement across runs, samples, wells, individuals or studies. Records carry a tag for their origin. The letters are not those of the source and start again with each entry.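 TGI: total growth inhibition.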 For some assays here: A record mostly stands for its own series of concentrations, not given here; some values may only mark the edge of a range.

Columns and labels:
Experiment in all cases: NCI tumour cell line growth inhibition, 48 h
[1] = test system: NCI-H226 lung
[2] = test system: HS 578T breast
[3] = test system: MALME-3M melanoma
[4] = test system: CCRF-CEM leukemia
[5] = test system: COLO 205 colon
[6] = test system: HCT-116 colon
[7] = test system: HL-60(TB) leukemia
[8] = test system: K-562 leukemia
[9] = test system: MOLT-4 leukemia
[10] = test system: NCI-H522 lung
[11] = test system: OVCAR-3 ovarian
[12] = test system: OVCAR-4 ovarian
[13] = test system: SK-MEL-5 melanoma
[14] = test system: SR leukemia
[15] = test system: A498 renal
[16] = test system: A549 NSCLC
[17] = test system: EKVX NSCLC
[18] = test system: HCT-15 colon
[19] = test system: HOP-62 NSCLC
[20] = test system: KM20L2 colon
[21] = test system: LXFL 529 NSCLC
[22] = test system: SN12C renal
[23] = test system: SNB-19 CNS
[24] = test system: SNB-75 CNS
[25] = test system: SW-620 colon
[26] = test system: XF 498 CNS
[27] = test system: BT-549 breast
[28] = test system: HOP-92 NSCLC
[29] = test system: NCI/ADR-RES ovarian
[30] = test system: RPMI-8226 leukemia
[31] = test system: SK-MEL-2 melanoma
[32] = test system: UACC-62 melanoma

COC(=O)C1=COC(C)C2CN3CCc4c([nH]c5ccccc45)C3CC12 (centres undefined)
GI50 [1]: 3.49 µM [sample A, 1 test] and > 100 µM [sample B, 1 test]

CC(C)CC(C/C=C1/CC(CO)(COC(=O)C(C)(C)C)OC1=O)CC(C)C (centres undefined)
GI50 [2]: 4.38 µM [sample A, 1 test] and 260 nM [sample B, mean of 2 tests]
GI50 [3]: 11.5 µM [sample A, 1 test] and 224 nM [sample B, 1 test]
TGI [3]: 25.1 µM [sample A, 1 test] and 697 nM [sample B, 1 test]

CN(C)C(=S)SSC(=S)N(C)C
GI50 [4]: 31 nM [sample A, mean of 2 tests] and 8.78 µM [sample B, 1 test] and 77.5 nM [sample C, mean of 2 tests]
GI50 [5]: 14.7 µM [sample A, 1 test] and 37.5 nM [sample B, mean of 2 tests]
GI50 [6]: 23.1 µM [sample A, mean of 2 tests] and 13.9 µM [sample B, 1 test] and 59.7 nM [sample C, 1 test]
GI50 [7]: 15.2 nM [sample A, mean of 2 tests] and 21.6 µM [sample B, 1 test] and 58 nM [sample C, mean of 2 tests]
GI50 [8]: 1.51 µM [sample A, mean of 2 tests] and 1.43 µM [sample B, 1 test] and 75.6 nM [sample C, mean of 3 tests]
GI50 [9]: 5.32 µM [sample A, mean of 2 tests] and 20.9 µM [sample B, 1 test] and 110 nM [sample C, mean of 3 tests]
GI50 [10]: < 35.1 nM [sample A, mean of 2 tests] and 895 nM [sample B, 1 test] and 73.1 nM [sample C, 1 test]
GI50 [11]: 96 nM [sample A, mean of 2 tests] and 213 nM [sample B, 1 test] and 1.08 µM [sample C, mean of 2 tests]
TGI [11]: 26.9 µM [sample A, mean of 2 tests] and 2.3 µM [sample B, 1 test] and 55 µM [sample C, mean of 2 tests]
GI50 [12]: 14.2 µM [sample A, 1 test] and 7.89 µM [sample B, 1 test] and 156 nM [sample C, mean of 2 tests]
GI50 [13]: 1.05 µM [sample A, mean of 2 tests] and 18.1 µM [sample B, 1 test] and 332 nM [sample C, mean of 2 tests]
GI50 [14]: 11.9 µM [sample A, 1 test] and 22.3 µM [sample B, 1 test] and 68 nM [sample C, mean of 2 tests]

COc1cc2c(cc1OC)[C@H]1CN3CCC[C@H]3C=C1c1ccc(OC)c(O)c1-2
TGI [15]: 0.138 nM and 220 nM
TGI [16]: 32.9 nM and 331 nM
TGI [17]: 44.8 nM and 10.3 µM
TGI [18]: 1.61 nM and 10.9 µM
TGI [7]: 0.867 nM and 412 nM
TGI [19]: 0.41 nM and 132 nM
TGI [8]: 321 nM and 15.8 nM
TGI [20]: 0.408 nM and 1.2 µM
TGI [21]: < 0.1 nM and 1.6 µM
TGI [9]: 1.65 nM and 243 nM
TGI [11]: < 0.1 nM and 142 nM
TGI [22]: 3.74 nM and 1.52 µM
TGI [23]: < 0.1 nM and 10.8 µM
TGI [24]: 0.93 nM and 16.3 nM
TGI [25]: 2.63 nM and 133 nM
TGI [26]: < 0.1 nM and 221 nM

COc1ccc(-c2ccc3c(N4CCOC[C@@H]4C)nc(N4CCOC[C@@H]4C)nc3n2)cc1CO
TGI [27]: 57.2 nM [sample A, mean of 2 tests] and 5.41 µM [sample B, mean of 2 tests]
TGI [5]: 203 nM [sample A, mean of 2 tests] and 4 µM [sample B, mean of 2 tests]
GI50 [7]: 14.1 nM [sample A, mean of 2 tests] and 443 nM [sample B, 1 test]
TGI [28]: 8.39 nM [sample A, mean of 2 tests] and 584 nM [sample B, 1 test]
TGI [29]: 988 nM [sample A, mean of 2 tests] and > 100 µM [sample B, mean of 2 tests]
TGI [30]: 155 nM [sample A, mean of 2 tests] and > 100 µM [sample B, 1 test]
GI50 [31]: 6.53 nM [sample A, mean of 2 tests] and 69.1 nM [sample B, 1 test]
TGI [31]: 41.4 nM [sample A, mean of 2 tests] and 712 nM [sample B, 1 test]
TGI [13]: 54.9 nM [sample A, mean of 2 tests] and 708 nM [sample B, mean of 2 tests]
TGI [32]: 9.51 nM [sample A, mean of 2 tests] and 142 nM [sample B, mean of 2 tests]

c1ccc2c(c1)[nH]c1c2cc[n+]2cc3c(cc12)CCCC3
TGI [11]: 7.31 µM [sample A] and > 100 µM [sample B]
TGI [31]: 3.31 µM [sample A] and > 100 µM [sample B]
